Like-named read-outs stand apart in the source and are kept apart here.
Legend:
[1] = tested on: HeLa, human cervical tumour cells; assay: cells; conditions: read-out: Inhibition of HeLa cell proliferation
[2] = tested on: HeLa-MaTu-ADR, multidrug-resistant human cervical carcinoma cells; assay: cells; conditions: read-out: Inhibition of HeLa-MaTu-ADR cell proliferation
[3] = tested on: A2780, human ovarian carcinoma cells; assay: cells; conditions: A2780, read-out: Inhibition of A2780 cell proliferation
[4] = tested on: NCI-H460, human non-small cell lung carcinoma cells; assay: cells; conditions: NCI-H460, read-out: Inhibition of H460 cell proliferation
[5] = tested on: DU 145, hormone-independent human prostate carcinoma cells; assay: cells; conditions: DU-145, read-out: Inhibition of DU145 cell proliferation
[6] = tested on: Caco-2, human colorectal carcinoma cells; assay: cells; conditions: Caco-2, read-out: Inhibition of Caco-2 cell proliferation
[7] = tested on: B16F10, mouse melanoma cells; assay: cells; conditions: B16-F10, read-out: Inhibition of B16F10 cell proliferation
[8] = tested on: A2780, human ovarian carcinoma cells; conditions: read-out: Inhibition of A2780 cell proliferation
[9] = tested on: HeLa, human cervical tumour cells; conditions: read-out: Inhibition of HeLa cell proliferation
[10] = tested on: HeLa-MaTu-ADR, multidrug-resistant human cervical carcinoma cells; conditions: read-out: Inhibition of HeLa-MaTu-ADR cell proliferation
[11] = tested on: NCI-H460, human non-small cell lung carcinoma cells; conditions: read-out: Inhibition of H460 cell proliferation
[12] = tested on: Caco-2, human colorectal carcinoma cells; conditions: read-out: Inhibition of Caco-2 cell proliferation
[13] = tested on: B16F10, mouse melanoma cells; conditions: read-out: Inhibition of B16F10 cell proliferation

Row | SMILES | IC50 [1] | IC50 [2] | IC50 [3] | IC50 [4] | IC50 [5] | IC50 [6] | IC50 [7] | IC50 [8] | IC50 [9] | IC50 [10] | IC50 [11] | IC50 [12] | IC50 [13]
1 | COc1cc(F)ccc1-c1nc(Nc2cc(F)c(F)c(CS(C)(=O)=NC#N)c2)ncc1F (racemic) [Example 24, (rac)-[(2,3-Difluoro-5-{[5-fluoro-4-(4-fluoro-2-methoxyphenyl)pyrimidin-2-yl]amino}benzyl)-(methyl)oxido-λ^6-sulfanylidene]cyanamide] | 104 nM | 81 nM | 48 nM | 99 nM | 110 nM | 94 nM | 140 nM | – | – | – | – | – | –
2 | COc1cc(F)ccc1-c1nc(Nc2cc(Br)cc(CS(C)(=N)=O)c2)ncc1F (racemic) [Example 29, (rac)-N-{3-Bromo-5-[(S-methylsulfonimidoyl)methyl]phenyl}-5-fluoro-4-(4-fluoro-2-methoxy-phenyl)pyrimidin-2-amine] | 107 nM | – | 47 nM | 130 nM | 100 nM | – | 130 nM | – | – | – | – | – | –
3 | COc1cc(F)ccc1-c1nc(Nc2cc(CS(C)(=N)=O)cc(C(F)(F)F)c2)ncc1F (racemic) [Example 41, (rac)-5-Fluoro-4-(4-fluoro-2-methoxyphenyl)-N-[3-[(S-methylsulfonimidoyl)methyl]-5-(trifluoro-methyl)phenyl]pyrimidin-2-amine] | 102 nM | 110 nM | 42 nM | 120 nM | 150 nM | 150 nM | 220 nM | – | – | – | – | – | –
4 | CCS(=O)(Cc1cc(F)cc(Nc2ncc(F)c(-c3ccc(F)cc3OC)n2)c1)=NC#N (racemic) [Example 42, (rac)-[Ethyl(3-fluoro-5-{[5-fluoro-4-(4-fluoro-2-methoxyphenyl)pyrimidin-2-yl]amino}benzyl)-oxido-λ^6-sulfanylidene]cyanamide] | 126 nM | 34 nM | 41 nM | 34 nM | 61 nM | 30 nM | 33 nM | – | – | – | – | – | –
5 | COc1cc(F)ccc1-c1nc(Nc2cc(CS(C)(=O)=NC#N)cc(C(F)(F)C(F)(F)F)c2)ncc1F (racemic) [Example 46, (rac)-{[3-{[5-Fluoro-4-(4-fluoro-2-methoxyphenyl)pyrimidin-2-yl]amino}-5-(pentafluoroethyl)-benzyl](methyl)oxido-λ^6-sulfanylidene}cyanamide] | 899 nM | – | – | – | – | – | – | – | – | – | – | – | –
6 | CS(=N)(=O)Cc1cccc(Nc2ncc(F)c(-c3ccc(F)cc3OCc3ccc(F)cc3)n2)c1 (racemic) [Example 55, (rac)-5-Fluoro-4-[4-fluoro-2-[(4-fluorobenzyl)oxy]phenyl]-N-[3-{(S-methylsulfonimidoyl)methyl]-phenyl}pyrimidin-2-amine] | 796 nM | – | – | – | – | – | – | – | – | – | – | – | –
7 | COc1cc(F)ccc1-c1nc(Nc2cc(CS(C)(=O)=NC#N)cc(S(F)(F)(F)(F)F)c2)ncc1F (racemic) [Example 60, (rac)-{[3-{[5-Fluoro-4-(4-fluoro-2-methoxyphenyl)pyrimidin-2-yl]amino}-5-(pentafluoro-λ^6-sulfanyl)benzyl](methyl)oxido-λ6-sulfanylidene}cyanamide] | 96 nM | 68 nM | 38 nM | 66 nM | 92 nM | 91 nM | 120 nM | – | – | – | – | – | –
8 | COc1cc(F)ccc1-c1nc(Nc2cc(CS(C)(=N)=O)cc(S(F)(F)(F)(F)F)c2)ncc1F (racemic) [Example 61, (rac)-5-Fluoro-4-(4-fluoro-2-methoxyphenyl)-N-{3-[(S-methylsulfonimidoyl)methyl]-5-(pentafluoro-λ^6-sulfanyl)phenyl}pyrimidin-2-amine] | 441 nM | 37 nM | 83 nM | 41 nM | 110 nM | 57 nM | 130 nM | – | – | – | – | – | –
9 | COc1cc(F)ccc1-c1nc(Nc2cc(Br)cc(CS(C)(=N)=O)c2)ncc1F (single isomer, unassigned) [Example 30, N-{3-bromo-5-[(S-methylsulfonimidoyl)methyl]phenyl}-5-fluoro-4-(4-fluoro-2-methoxyphenyl)-pyrimidin-2-amine] | 145 nM | – | – | 98 nM | 130 nM | – | 150 nM | 62 nM | – | – | – | – | –
10 | COc1cc(F)ccc1-c1nc(Nc2cc(Br)cc(CS(C)(=N)=O)c2)ncc1F (single isomer, unassigned) [Example 31, N-{3-bromo-5-[(S-methylsulfonimidoyl)methyl]phenyl}-5-fluoro-4-(4-fluoro-2-methoxyphenyl)-pyrimidin-2-amine] | – | – | – | – | – | – | – | 1000 nM | 169 nM | 59 nM | 90 nM | 98 nM | 130 nM

Source: patent US9133171B2 (priority 2011, dated 2015)
